Assay results: PubChem BioAssay AID1030 (National Center for Advancing Translational Sciences (NCATS), 2008)
In all, about 220,000 compounds went through this assay and about 16,000 (7.3%) were called active. Inconclusive results, whose numbers are uncertain, are shown with a selection of clear calls. The call rests on the fitted dose curve; in most records, active means well fitted inhibition curve with a large enough effect (not every such curve was filed as active); inconclusive means small, poorly fitted or top-dose-only effect, or another doubt; inactive means no such curve, though single readings can be large or run the other way. No potency is given beside an inconclusive call; the fits are too rough.

Target: Aldehyde dehydrogenase 1A1 (Homo sapiens) (UniProt P00352)
Assay: qHTS Assay for Inhibitors of Aldehyde Dehydrogenase 1 (ALDH1A1)
Conditions: Purified ALDH1A1, NADH fluorescence, propionaldehyde substrate; series mostly up to 75.3 µM
Potency means the concentration at half of the fitted maximal effect; tags describe the fitted curve by direction and shape.

Sequence of UniProt P00352 (P00352 whole entry, looked up): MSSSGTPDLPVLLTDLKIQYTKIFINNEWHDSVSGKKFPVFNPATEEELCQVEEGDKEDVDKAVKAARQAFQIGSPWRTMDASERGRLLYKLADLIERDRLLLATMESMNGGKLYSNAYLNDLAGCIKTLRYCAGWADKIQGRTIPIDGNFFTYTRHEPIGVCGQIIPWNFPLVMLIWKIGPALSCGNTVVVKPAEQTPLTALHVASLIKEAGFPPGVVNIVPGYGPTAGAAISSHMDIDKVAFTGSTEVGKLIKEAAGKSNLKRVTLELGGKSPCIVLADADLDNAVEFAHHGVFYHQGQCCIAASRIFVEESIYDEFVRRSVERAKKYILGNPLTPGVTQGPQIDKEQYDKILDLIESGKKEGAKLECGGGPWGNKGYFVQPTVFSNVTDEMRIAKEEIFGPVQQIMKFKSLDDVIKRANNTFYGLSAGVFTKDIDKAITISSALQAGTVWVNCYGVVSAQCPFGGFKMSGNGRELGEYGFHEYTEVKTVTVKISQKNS

Structure (SMILES) | Potency
O=C1C2C3C=CC(C4CC34)C2C(=O)N1/N=C/c1ccc(-c2ccc(F)cc2[N+](=O)[O-])o1 (configuration not stated) | inconclusive [inhibitor, partial curve]
Cc1ccc(/C=N/n2c(-c3ccncc3)n[nH]c2=S)cc1 | inconclusive [inhibitor, partial curve]
CCn1c(CC(=O)Nc2cccc(Cl)c2Cl)nnc1SCCOc1ccc(OC)cc1 | active: 14.1 µM
COc1cccc(N)c1 | inconclusive [inhibitor, single point]
COc1ccc(CCNC(=S)NC(=O)c2ccc(Br)cc2)cc1OC | inconclusive [inhibitor, single point]
O=C(CCc1ccc(S(=O)(=O)NC2CCCCC2)cc1)N(Cc1ccccc1)Cc1ccccc1 | inconclusive [inhibitor, full curve]
Cc1ccc(S(=O)(=O)N2CCOCC2)cc1C(=O)OC1CCCCC1=O (configuration not stated) | inactive
Cc1ccc(/C=C2/NC(=O)N(Cc3ccccc3F)C2=O)o1 | active: 15.8 µM
COc1ccc(/C(=N\Nc2ccccc2C(=O)O)c2ccccc2)cc1 | inconclusive [inhibitor, single point]
Cc1ncsc1C(=O)Nc1nc2c(s1)CC(C)CC2 (configuration not stated) | inconclusive [inhibitor, single point]
CCOC(=O)C1=C(C)Nc2nc3ccccc3n2C1c1ccccc1 (configuration not stated) | inconclusive [inhibitor, partial curve]
Cc1ccc(-n2cccc2C(=S)N=P(N(C)C)(N(C)C)N(C)C)cc1 | active: 10 µM
CCOc1ccc(S(=O)(=O)N2CCN(c3ccccc3)CC2)c2cccnc12 | active: 28.2 µM
O=C(CCCN1C(=O)c2cccc3cccc(c23)C1=O)NC1CCS(=O)(=O)C1 (configuration not stated) | inconclusive [inhibitor, single point]
O=S1(=O)N=C(N(CCO)/N=C/C=C/c2ccccc2)c2ccccc21 | inconclusive [inhibitor, single point]
CC(O)CSc1nc2c(c(=O)[nH]c(=O)n2C)n1CC(O)COc1ccccc1 (configuration not stated) | active: 23.8 µM
COc1ccc(Oc2ncc3nc(-c4ccc(OC)cc4)c(=O)n(Cc4cccs4)c3n2)cc1 | inconclusive [inhibitor, single point]
COc1ccc2nc(NC(=O)c3ccc(NS(=O)(=O)c4cccs4)cc3)sc2c1 | inconclusive [inhibitor, partial curve]
COc1ccccc1N1CCN(/N=C/c2ccc(O)c(O)c2)CC1 | inconclusive [inhibitor, single point]
CSc1ccccc1C(=O)Nc1ccccc1C(=O)NC(C)C | inconclusive [inhibitor, single point]
CN/S(=N/S(=O)(=O)c1ccccc1)c1ccc(C)cc1 (configuration not stated) | inactive
COc1ccccc1-n1c(SCC(=O)NC2CCCCC2)nc2c(c1=O)SCC2 | inactive
CC(C)c1cc(Br)ccc1OCCCN1C(=O)NC(C)(C)C1=O | inconclusive [inhibitor, single point]
O=S(=O)(/C=C/c1ccccc1)Nc1ccc2c(c1)OCO2 | inconclusive [inhibitor, partial curve]
COc1cc(/C=N/NC(=O)c2cccc([N+](=O)[O-])c2)ccc1OC(=O)c1ccco1 | inconclusive [inhibitor, single point]
O=C(Cc1cccs1)N(CC1CCCO1)C1(C(=O)NC2CCCCC2)CCCCC1 (configuration not stated) | inconclusive [inhibitor, single point]

Structure (SMILES) | Potency
C/C=C/c1ccc(OCc2cc(=O)n3cc(C)ccc3n2)c(OC)c1 | inconclusive [inhibitor, partial curve]
O=C(C1CCN(S(=O)(=O)c2ccccc2F)CC1)N1CCc2ccccc2C1 | inactive
CC(=O)c1ccc(NC(=O)COC(=O)c2nc(Cl)ccc2Cl)cc1 | inconclusive [inhibitor, single point]
C[C@@H](C(=O)N[C@@H](CO)Cc1ccccc1)[C@H]1C[C@]1(C)[C@H](NC(=O)OCc1ccccc1)c1ccccc1 | active: 7.08 µM
CC(C)Oc1ccc(C(=O)NC2=NCCS2)cc1 | active: 20 µM
Cc1cc(NC(=O)CSc2nnc(NC(=O)C3CC(=O)N(c4ccccc4)C3)s2)no1 (configuration not stated) | inactive
CC(C)COc1ccc(C(=O)N2C(=O)c3ccc(N)cc3C2=O)cc1 | inconclusive [inhibitor, partial curve]
COc1ccc(-c2nnc(N(C)C(=O)C3CCCO3)s2)cc1 (configuration not stated) | inconclusive [inhibitor, single point]
O=c1c(Cc2c(F)cccc2Cl)c(O)ccn1CCCN1CCOCC1 | inactive
O=C(NC(=S)Nc1ccc2c(c1)OCCO2)c1ccccc1 | active: 22.4 µM
COc1ccc(NC(=O)/C(C#N)=C\c2ccc(N3CCOCC3)o2)cc1 | inconclusive [inhibitor, single point]
CC1(C)Cc2c(C#N)c(OCC(=O)c3ccc(Cl)cc3)nc(-c3ccoc3)c2CO1 | active: 0.398 µM
CCC(C)NC(=O)CSc1nnc(-c2ccc(C(C)(C)C)cc2)n1C (configuration not stated) | inactive
CS(=O)(=O)N1CCC[C@@]2(CCN(C(c3ccccc3)c3ccccc3)C2)C1 | inactive
CC(/C=C/c1ccco1)=N\NC(=O)c1cc(C)[nH]n1 | inactive
Clc1ccc(CN2CCN(/N=C/c3ccco3)CC2)cc1 | inconclusive [inhibitor, single point]
O=C(CSc1nc2[nH]ncc2c(=O)n1-c1ccccc1)NCCc1ccccc1 | inconclusive [inhibitor, single point]
C/C=C(\C)C(=O)O[C@H]1C[C@@]2(C)CCC(C(C)C)C2(O)CC[C@@]1(C)O (some centres not stated) | inactive
COC(=O)c1ccc(CSc2nnnn2-c2ccccc2)o1 | active: 7.08 µM
CCc1ccc(S(=O)(=O)NC(=S)Nc2ccccc2)cc1 | active: 31.6 µM
N#Cc1c(C#N)c(-c2ccccc2)n(-c2ccccc2)c1N | inconclusive [inhibitor, partial curve]
O=C(c1cc(-c2ccc(Cl)cc2)on1)N1CCOCC1 | inactive
Cc1nnc(N)nc1C | inconclusive [inhibitor, partial curve]
Fc1ccc2c(c1)C1C=CCC1C(c1cc3c(cc1Br)OCO3)N2 (configuration not stated) | inactive
Cc1ccccc1NC(=O)c1sc2nc3c(c(-c4ccco4)c2c1N)CCCC3 | inconclusive [inhibitor, partial curve]
COc1ccc(-c2nc3cnc(OC)nc3n(CCC#N)c2=O)cc1 | inactive

Structure (SMILES) | Potency
CCN(CC)S(=O)(=O)c1ccc2oc(Nc3ccc4c(c3)OCCO4)nc2c1 | inactive
C=CCn1c(=NC(=O)CC)n(C)c2ccccc21 | inactive
COc1nnc(-c2ccccc2)s1 | inconclusive [inhibitor, single point]
CC(=O)C(Sc1nc(N(C)C)nc(N(C)C)n1)C(=O)Nc1ccccc1 (configuration not stated) | inactive
COc1ccc(-c2ccc(CCC(=O)O)n2C(C)C)cc1 | inconclusive [inhibitor, partial curve]
Cn1c(SCC(=O)N2CCCCC2)nc2c([nH]c3ccccc32)c1=O | inconclusive [inhibitor, single point]
COc1ccc(NC(=S)Nc2cccc3cnccc23)cc1 | active: 25.1 µM
COc1ccc2nc(SCC(=O)NCC(F)(F)F)[nH]c2c1 | inactive
Clc1ccc2oc3c(Cl)ncnc3c2c1 | inconclusive [inhibitor, partial curve]
O=c1[nH]c(=O)n(-c2ccccc2)c2c1C(C(F)(F)F)(C(F)(F)F)N=C(CCC1CCCCC1)N2 | inactive
CCCCCC(=O)Nc1ccc2oc(-c3ccncc3)nc2c1 | inconclusive [inhibitor, single point]
O=C(CN1C(=O)c2ccccc2S1(=O)=O)Nc1ccccc1 | inactive
Cc1ccc(S(=O)(=O)N2CCN(C)CC2)c(C)c1N(C)S(=O)(=O)c1ccc(Cl)cc1 | inconclusive [inhibitor, partial curve, poor fit]
CCOC(=O)CNC(=O)CSc1nc(-c2cccc(C)c2)ns1 | active: 20 µM
O=c1[nH]c(CSc2nnnn2-c2ccc(Cl)cc2)nc2ccccc12 | inconclusive [inhibitor, single point]
COC(=O)c1cc2ccccn2c2c(C(=O)OC)c(C(=O)OC)cc1-2 | inactive
FC(F)(F)c1ccccc1-c1cc(N2CCNCC2)ncn1 | inactive
Cc1ccc(N=C2SC(C(=O)NCCc3ccccc3)CC(=O)N2C)cc1C (configuration not stated) | active: 10 µM
O=C1CN(C(=O)CSc2nnnn2-c2ccc(Cl)cc2)c2ccccc2N1 | inactive
CC(C(=O)Nc1cccnc1)N1C(=O)C2C3C=CC(C3)C2C1=O (configuration not stated) | active: 20 µM
COC(=O)c1ccc(CNC(=O)c2coc3ccccc3c2=O)cc1 | inactive
CCn1nc(C(=O)OCC(=O)N2CCc3ccccc32)c2ccccc2c1=O | inconclusive [inhibitor, single point]
CSc1nc2nc(C(F)(F)F)cc(-c3ccccc3)n2n1 | inconclusive [inhibitor, single point]
O=c1ccn(-c2cccc(C(F)(F)F)c2)nc1-c1ccn(-c2cccc(Cl)c2)n1 | inactive
O=C(O/N=C(/c1ccccc1)c1ccncc1)c1ccccc1[N+](=O)[O-] | inconclusive [inhibitor, single point]
